Data: publication PMC4336329 (PLoS ONE, 2015)
About 2,200 (0.71%) of roughly 310,000 compounds showed an effect of 50% or more. Effects have a minus sign here. This is one part of the list.

These molecules were tested against human ether-à-go-go-related gene (hERG) potassium channel (human, UniProt Q12809) (assay: primary screen, population patch clamp on CHO cells stably expressing hERG).
Chain of human ether-à-go-go-related gene (hERG) potassium channel (Q12809 whole entry, looked up): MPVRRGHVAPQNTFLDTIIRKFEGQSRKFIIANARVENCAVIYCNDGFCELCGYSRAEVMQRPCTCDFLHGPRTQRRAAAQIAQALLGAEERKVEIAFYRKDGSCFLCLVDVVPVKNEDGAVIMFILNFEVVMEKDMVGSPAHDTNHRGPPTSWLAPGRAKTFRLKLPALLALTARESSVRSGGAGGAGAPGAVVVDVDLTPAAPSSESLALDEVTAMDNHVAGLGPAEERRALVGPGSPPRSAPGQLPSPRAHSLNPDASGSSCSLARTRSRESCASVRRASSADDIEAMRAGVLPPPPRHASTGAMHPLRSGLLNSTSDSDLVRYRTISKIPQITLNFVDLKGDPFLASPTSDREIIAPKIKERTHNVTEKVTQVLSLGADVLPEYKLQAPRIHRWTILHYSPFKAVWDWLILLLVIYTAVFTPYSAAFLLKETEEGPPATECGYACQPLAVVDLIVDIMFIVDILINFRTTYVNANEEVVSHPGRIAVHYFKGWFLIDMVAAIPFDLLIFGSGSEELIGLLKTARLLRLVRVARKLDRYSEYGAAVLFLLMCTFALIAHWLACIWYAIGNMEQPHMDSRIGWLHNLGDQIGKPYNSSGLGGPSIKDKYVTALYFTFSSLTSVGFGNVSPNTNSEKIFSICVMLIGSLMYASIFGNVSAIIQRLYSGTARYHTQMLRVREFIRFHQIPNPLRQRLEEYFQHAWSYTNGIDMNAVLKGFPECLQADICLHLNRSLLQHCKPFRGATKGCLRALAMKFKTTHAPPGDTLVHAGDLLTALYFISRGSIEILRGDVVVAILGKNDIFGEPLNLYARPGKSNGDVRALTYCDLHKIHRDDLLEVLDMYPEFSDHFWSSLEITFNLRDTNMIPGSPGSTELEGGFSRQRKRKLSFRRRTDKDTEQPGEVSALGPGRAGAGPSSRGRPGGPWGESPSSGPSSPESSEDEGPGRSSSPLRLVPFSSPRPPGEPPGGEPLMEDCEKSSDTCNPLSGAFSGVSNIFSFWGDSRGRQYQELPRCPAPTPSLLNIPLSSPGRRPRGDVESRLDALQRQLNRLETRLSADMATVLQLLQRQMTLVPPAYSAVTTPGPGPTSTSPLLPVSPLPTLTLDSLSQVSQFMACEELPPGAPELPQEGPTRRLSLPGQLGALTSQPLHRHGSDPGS

Row | Compound | hERG current change (%, negative = inhibition) at 1uM
1 | COc1ccc(SC[C@H](CC(C)C)N2CCN(CCc3ccccc3)CCC2=O)cc1 | -51.6%
2 | CCOc1ccc2[nH]c(=O)c(CN(CCO)C3(c4nnnn4C4CCCCC4)CCCCC3)cc2c1 | -0.893%
3 | Cc1cc(Cl)c2oc(C(=O)N(C)CCCN3CCOCC3)c(C)c2c1 | 4.34%
4 | Cc1cc2c(c(N3CCOCC3)n1)C(=O)OC2 | 14.5%
5 | COc1cc(NC(=O)CCNC(=O)Cn2ccc3ccccc3c2=O)cc(OC)c1OC | 14.9%
6 | O=C(NCc1ccc2c(c1)OCO2)c1ccccc1 | 0.0534%
7 | FC(F)(F)c1cccc(Cn2cnc(NC(=S)NCCc3ccccc3)n2)c1 | 5.2%
8 | COc1ccccc1C(=O)C1CCCN(C(=O)CCn2cnnn2)C1 (centres unmarked) | 8.14%
9 | COc1ccc2c(c1)CCc1c(C(=O)NCc3ccco3)noc1-2 | 7.76%
10 | CCOc1cc(C(=O)NC(CC(=O)O)c2ccc(OC3CCCC3)cc2)cc(OCC)c1OCC (centres unmarked) | 17.9%
11 | CCC[C@H]1COCCS(=O)(=O)N1Cc1ccc(Br)cc1 | -3.31%
12 | O=C(NCc1ccc2c(c1)OCO2)C1CC(=O)N(c2ccc(F)cc2)C1 (centres unmarked) | -10.6%
13 | C=CCc1cc(Cl)ccc1OCCNCCCOC.O=C(O)C(=O)O | -8.81%
14 | CC(=O)c1nn(-c2ccc(Cl)cc2)cc1C(=O)c1ccc(C)cc1 | 10%
15 | NC(CO)(CO)COCc1ccccc1 | 8.4%
16 | O=C(NCc1cccs1)c1cnc(Cl)c(Cl)c1 | 10.9%
17 | COCCn1c(SCC(=O)Nc2cc(C)on2)nnc1C(C)C | 12.1%
18 | COc1cc(C=C2C(=O)OC(C)(C)OC2=O)cc(Cl)c1OCC(=O)Nc1ccccc1 | 0.325%
19 | Cc1nc2ccccc2cc1C(=O)N/N=C/c1ccco1 | 13.9%
20 | COc1cc(CNCCN(C)C)c(Br)cc1OC1CCCC1.Cl | 23.9%
21 | O=C(C1CCCN(S(=O)(=O)c2cnc[nH]2)C1)N1CCN(c2ccc(Cl)cc2)CC1 (centres unmarked) | -3.65%
22 | O=C(NCCCN1CCN(c2cccc(Cl)c2)CC1)c1ccc(N2CCCC2=O)cc1 | 0.715%

Row | Compound | hERG current change (%, negative = inhibition) at 1uM
23 | COc1cc([N+](=O)[O-])ccc1NC(=S)Nc1cccc(C(=O)O)c1 | 15.4%
24 | COc1ccc(Cl)cc1NC(=O)Cn1cccc1 | 4.23%
25 | CCN1CCN(C(=O)C2CCN(S(=O)(=O)c3cc(Cl)ccc3Cl)CC2)CC1 | 1.46%
26 | Cc1ccc(OCCC(=O)OCC(=O)NC(=O)NC2CCCC2)cc1 | 10.4%
27 | CCc1ccccc1OCC(=O)NNCC(=O)Nc1cccc(C#N)c1 | 1.23%
28 | COc1cccc(CN(C)Cc2c(O)ccc3ccccc23)c1 | 13.9%
29 | Cc1cc(C(=O)COC(=O)CN(C)S(=O)(=O)c2ccc(Cl)cc2)c(C)n1Cc1cccs1 | -1.92%
30 | O=C(COc1ccc2ccccc2c1)NNC(=O)c1cccs1 | 6.38%
31 | CCOC(=O)C1CCN(C(=O)c2ccccc2NS(=O)(=O)c2ccc(F)c(F)c2)CC1 | 10.3%
32 | CC(C)OCCCNC(=O)c1cc(-c2cccs2)nc2ccccc12 | 4.92%
33 | CCOC(=O)[C@@H]1[C@H]2COc3ccccc3[C@@H]2N2C(=O)N(c3cccc(C)c3)C(=O)[C@]12C | 3.83%
34 | Cn1c(NC(=O)/C=C/c2ccc(Cl)c(Cl)c2)cc(=O)n(C)c1=O | 10.7%
35 | COc1cc(C(=O)Nc2nc(-c3ccc(Cl)cc3)c(C)s2)ccc1OCC(=O)Nc1ccc(F)cc1 | 11.4%
36 | C/C(=N\N1CCN(Cc2ccc(Cl)cc2)CC1)c1ccc(F)cc1 | 6.05%
37 | O=C(NCCc1ccccc1)C(=S)N1CCCCC1 | 14.4%
38 | CC(C)OC(=O)CSc1nc2ccccc2s1 | 13.2%
39 | Cn1c(CN2CCCC2)nc2cc(NC(=O)c3ccco3)ccc21 | 5.36%
40 | CC(C)n1c(O)c(N=NC(=O)Cc2csc(N3CCOCC3)n2)c2ccccc21 | 5.31%
41 | C/C(CCC1CC(C)OC1=O)=N\NC(N)=O (centres unmarked) | 17.2%
42 | CC1=CC(C)[C@H](/C=N/n2c(=O)[nH]c3c([nH]c4ccc(Br)cc43)c2=O)C(C)C1 (some centres unmarked) | 5.8%
43 | O=[N+]([O-])/C(=C\Nc1ccccc1)S(=O)(=O)c1ccccc1 | 8.85%
44 | COCc1cc(C)nc(SCC(=O)NCC2CCCO2)c1C#N (centres unmarked) | 10.1%
